# Measurements taken from PubChem BioAssay (Tox21).
# Values joined by “and” are separate entries in the source; they are usually repeats but may differ in a detail not shown here. Equal entries are not always repeated. Inconclusive means that the source gave no clear call. Such entries were picked first, then a sample of the others. For some assays here: Where the call is inconclusive, the potency comes from a doubtful curve fit. Active and inactive are the calls of the source. Unless noted, the call rests on the fitted dose curve; in most records, active means well fitted curve in the direction sought with a large enough effect in the repeat runs; inconclusive means weak or mixed curves; inactive means no such curve, though single readings can be large; an effect the other way counts as inactive or inconclusive.
# Columns and labels:
# [1] = qHTS assay to identify small molecule antagonists of the retinoic acid receptor (RAR) signaling pathway (AID 1159552; further: potency means the concentration at half of the fitted maximal effect; nearly all actives have a fitted effect of over 50% in size)
# Method in brief: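 Luminescent RARE reporter read-out in C3RL4 cells: 6 hr co-treatment at 37 C of test compounds with retinol at 1 uM final. Cells plated overnight beforehand; luciferase reagent incubated 30 min at room temperature before reading.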
# [2] = qHTS assay to identify small molecule agonists of the retinoic acid receptor (RAR) signaling pathway (AID 1159553); details: C3RL4 RARE luciferase reporter, agonist, 6 h; activation: at 73.3 µM (top of the series) unless noted; further: potency means the concentration at half of the fitted maximal effect
# Method in brief: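 Agonist activity was scored in C3RL4 cells bearing a retinoic acid response element luciferase construct. Cells were treated with compounds for 6 hr at 37 C, and luciferase signal was measured as luminescence.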
# [3] = qHTS assay to identify small molecule agonists of the constitutive androstane receptor (CAR) signaling pathway - cell viability counter screen (AID 1224836); further: potency means the concentration at half of the fitted maximal effect; nearly all actives have a fitted effect of over 45% in size
# Method in brief: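 Cell viability multiplexed with the CAR agonist screen: CellTiter-Fluor fluorescence after 23 hr at 37 C. HepG2-CYP2B6-hCAR cells got compounds at 15 concentrations with PK11195 at 0.75 uM final.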
# [4] = qHTS assay to identify small molecule antagonists of the estrogen related receptor signaling pathway with the pleiotropic PPARgamma coactivator (PGC) from Tox21 10K library - cell viability counter screen (AID 1224840; active means well fitted cell-killing curve with a large enough effect in the repeat runs, not every such curve was filed as active; inconclusive means weak or mixed curves, or effect the other way; inactive means no such curve, though single readings can be large or run the other way; further: potency means the concentration at half of the fitted maximal effect; nearly all actives have a fitted effect of over 40% in size)
# Method in brief: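 Step one, plate 2,000 PGC/ERR cells per well; step two, incubate 6 h at 37 C/5% CO2; step three, pin-transfer compounds; step four, incubate 17.5 h; step five, add CellTiter-Fluor and read fluorescence after 30 min.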
# [5] = qHTS assay to identify small molecule antagonists of the estrogen related receptor (ERR) signaling pathway from Tox21 library - cell viability counter screen (AID 1224834); further: potency means the concentration at half of the fitted maximal effect; nearly all actives have a fitted effect of over 30% in size
# Method in brief: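 Cytotoxicity of test substances is gauged in the same ERR cells used for the antagonist screen, after 17.5 h of compound treatment at 37 C, by CellTiter-Fluor fluorescence measured after 30 min.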
# [6] = target: Nuclear receptor subfamily 1 group I member 3 (Homo sapiens) (UniProt Q14994); test: qHTS assay to identify small molecule agonists of the constitutive androstane receptor (CAR) signaling pathway (AID 1224839); further: potency means the concentration at half of the fitted maximal effect; nearly all actives have a fitted effect of over 15% in size
# UniProt Q14994, sequence (Q14994 whole entry, looked up): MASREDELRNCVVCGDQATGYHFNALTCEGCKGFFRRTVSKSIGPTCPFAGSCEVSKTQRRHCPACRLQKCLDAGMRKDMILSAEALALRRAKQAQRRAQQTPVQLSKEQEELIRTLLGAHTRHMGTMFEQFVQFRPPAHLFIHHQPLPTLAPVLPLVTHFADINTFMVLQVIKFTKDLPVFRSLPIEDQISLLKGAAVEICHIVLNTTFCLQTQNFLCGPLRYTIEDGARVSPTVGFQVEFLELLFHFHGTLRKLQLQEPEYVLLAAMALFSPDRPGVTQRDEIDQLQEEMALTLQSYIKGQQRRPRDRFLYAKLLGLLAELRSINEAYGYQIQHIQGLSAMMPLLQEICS
# Method in brief: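 Luminescent ONE-Glo read-out after 24 hr, 37 C exposure of double-stable HepG2-CYP2B6-hCAR reporter cells to a 15-point compound series, in the presence of 0.75 uM PK11195 (final).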
# [7] = target: Thyrotropin receptor (Homo sapiens) (UniProt P16473); test: qHTS assay to identify small molecule agonists of the thyroid stimulating hormone receptor (TSHR) signaling pathway (AID 1224843; calls by dose curve; further: nearly all actives have a fitted effect of over 45% in size; further: potency means the concentration at half of the fitted maximal effect; on activation: on the % scale 0 is the no-effect control and ±100 the full control effect); details: TSHR-HEK293 cells, cAMP HTRF, agonist mode, 30 min
# UniProt P16473, sequence (P16473 whole entry, looked up): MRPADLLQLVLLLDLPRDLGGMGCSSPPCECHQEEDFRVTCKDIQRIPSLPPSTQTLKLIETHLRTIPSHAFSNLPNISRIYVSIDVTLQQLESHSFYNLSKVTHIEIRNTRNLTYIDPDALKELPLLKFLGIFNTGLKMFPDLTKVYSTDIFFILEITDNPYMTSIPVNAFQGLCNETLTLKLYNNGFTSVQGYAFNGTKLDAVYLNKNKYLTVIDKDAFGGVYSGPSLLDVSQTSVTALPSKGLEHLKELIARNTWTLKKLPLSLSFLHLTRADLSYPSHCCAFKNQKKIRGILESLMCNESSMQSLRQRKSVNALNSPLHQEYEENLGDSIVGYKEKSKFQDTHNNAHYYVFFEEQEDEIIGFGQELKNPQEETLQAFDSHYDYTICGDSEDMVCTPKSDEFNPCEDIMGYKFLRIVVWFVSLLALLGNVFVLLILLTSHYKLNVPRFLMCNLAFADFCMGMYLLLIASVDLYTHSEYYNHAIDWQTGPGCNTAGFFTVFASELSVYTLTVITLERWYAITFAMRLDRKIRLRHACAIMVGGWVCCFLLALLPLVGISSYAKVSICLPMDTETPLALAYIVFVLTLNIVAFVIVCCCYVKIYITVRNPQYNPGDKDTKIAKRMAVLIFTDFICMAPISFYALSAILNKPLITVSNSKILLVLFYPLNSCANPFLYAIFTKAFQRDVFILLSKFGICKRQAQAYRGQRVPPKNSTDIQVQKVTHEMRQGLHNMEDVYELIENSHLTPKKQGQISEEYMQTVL
# Method in brief: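 HEK293 cells stably bearing the thyrotropin receptor were plated at 800 cells/well and challenged with compound (30 min, RT). Accumulated cAMP was quantified via cAMP-d2 competing for cryptate-tagged antibody.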
# [8] = qHTS assay to identify small molecule agonists of the hypoxia (HIF-1) signaling pathway - cell viability counter screen (AID 1224844; calls by dose curve; further: potency means the concentration at half of the fitted maximal effect; nearly all actives have a fitted effect of over 50% in size)
# Method in brief: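 Tox21 10K compounds were added to HRE-bla ME-180 cells (0.5% dialyzed FBS) and incubated 17 hrs at 37C; ATP-based CellTiter-Glo luminescence then reported cell viability in the same wells.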
# [9] = qHTS assay to identify small molecule antagonists of the retinoid acid receptor (RAR) signaling pathway - cell viability counter screen (AID 1159551); further: on the % scale 0 is the no-effect control and ±100 the full control effect; nearly all actives have a fitted effect of over 35% in size
# Method in brief: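 Cytotoxicity counter screen in C3RL4 cells: 6 h compound exposure with 1 uM retinol (final), viability from cellular ATP by luminescence.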
# [10] = qHTS assay to identify small molecule antagonists of the estrogen related receptor (ERR) signaling pathway - cell viability counter screen (AID 1224818);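 further: potency means the concentration at half of the fitted maximal effect; viability measured after 17.5 h of compound exposure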
# Method in brief: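 Cells carrying the ERR pathway reporter were seeded and incubated for 6 hours before compound addition. After a 17.5-hour exposure at 37 C, live-cell protease activity was measured by CellTiter-Fluor fluorescence following 30 minutes of incubation.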
# [11] = qHTS assay to identify small molecule antagonists of the estrogen related receptor (ERR) signaling pathway (AID 1224819; further: potency means the concentration at half of the fitted maximal effect; nearly all actives have a fitted effect of over 50% in size)
# Method in brief: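 Compounds dissolved in DMSO were pin-transferred onto ERR cells that had been plated 6 h earlier, and cells were then incubated 18 h at 37 C; signal was luciferase luminescence via One-Glo.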
# [12] = qHTS assay to identify small molecule antagonists of the estrogen related receptor signaling pathway with the pleiotropic PPARgamma coactivator (PGC) cell viability counter screen (AID 1224822;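 further: potency means the concentration at half of the fitted maximal effect; viability read after 17.5 h compound exposure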)
# Method in brief: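 Seed PGC/ERR cells (2,000/well); incubate 6 h at 37 C/5% CO2; pin-transfer compounds in DMSO; incubate 17.5 h at 37 C; add CellTiter-Fluor; after 30 min read fluorescence.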
# [13] = qHTS assay to identify small molecule agonists of the estrogen related receptor signaling pathway with the pleiotropic PPARgamma coactivator (PGC) (AID 1224823); further: potency means the concentration at half of the fitted maximal effect
# Method in brief: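 Cell-based luciferase assay in the NTP-supplied PGC/ERR line, 2,000 cells/well; 18 h compound exposure at 37 C, luminescence after One-Glo.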
# [14] = activation: at 92.4 µM (top of the series) unless noted
# Tags describe the fitted curve by direction and shape or compound fluorescence and quenching.
compound,measurement,setting,value
CCCCCCCC/C=C/CCCCCCCC1=NCCN1CCO,Potency,[1],active: 61.1 µM
same,Potency,[2],"inconclusive: 61.1 µM [inhibitor, partial curve]"
same,Potency,[3],"inconclusive: 68.6 µM [cytotoxic, single point]"
same,Potency,[4],"inconclusive: 68.6 µM [cytotoxic, single point]"
Oc1ccc(O)cc1,Potency,[1],active: 17.1 µM and active: 24.3 µM and active: 10.6 µM
same,Potency,[2],"inconclusive: 15.3 µM [inhibitor, full curve] and inconclusive: 61.1 µM [inhibitor]"
same,Potency,[5],"inconclusive: 30.5 µM [cytotoxic, partial curve] and inconclusive: 33.5 µM [cytotoxic, partial curve, poor fit]"
same,Potency,[3],"inconclusive: 54.2 µM [rising, partial curve, poor fit]"
same,Potency,[6],"inconclusive: 15 µM [activator, partial curve]"
same,Potency,[4],"inconclusive: 34.4 µM [cytotoxic, partial curve, poor fit]"
same,Potency,[7]; [14],"inconclusive: 43 µM [falling, partial curve]"
same,activation,[7]; at 42.5 µM (top of the series),inconclusive: 13.5%
same,activation,[7]; at 92.4 µM (top of the series),inconclusive: 22.8%
same,Potency,[8],"inconclusive: 54.6 µM [cytotoxic, single point]"
CCN=C1C=CC(=C(c2ccc(N(CC)CC)cc2)c2ccc(N(CC)CC)cc2)c2ccccc21,Potency,[1],active: 4.83 µM
same,Potency,[2],"inconclusive: 0.121 µM [inhibitor, full curve]"
same,Potency,[7]; [14],"inconclusive: 24.2 µM [falling, partial curve]"
same,Potency,[8],active: 21.7 µM
CCCCC(CC)CN1CN(CC(CC)CCCC)CC(C)(N)C1 (centres undefined),Potency,[9],inactive
same,activation,[7]; [14],inconclusive: -23.5% [at 42.5 µM]
same,Potency,[8],"inconclusive: 15.1 µM [cytotoxic, partial curve]"
CN1CCN(CCCN2c3ccccc3Sc3ccc(C(F)(F)F)cc32)CC1,Potency,[1],active: 23.7 µM
same,Potency,[2],inconclusive: 29.8 µM [inhibitor]
same,Potency,[10],"inconclusive: 33.5 µM [cytotoxic, partial curve, poor fit]"
same,Potency,[11],inconclusive: 31.6 µM [inhibitor]
same,Potency,[12],"inconclusive: 29.8 µM [cytotoxic, single point]"
same,Potency,[13],"inconclusive: 33.5 µM [activator, single point]"
same,Potency,[4],active: 29.8 µM
same,Potency,[8],active: 16.9 µM
